Over roughly 81,000 sequences, “one-hybrid fitness for binding NBS DNA” has its median near -0.1; the highest 2% begin near 0.36. The list shows a part of the results.
B1: Caulobacter ParB omega fusion; a variant is named by its letters at X, in order, B8GW30 (parent)
chain: MESVVVGEPGMSEGRRGLGRGLSALLGEVDAAPAQAPGEQLGGSREAPIEILQRNPDQPRRTFREEDLEDLSNSIREKGVLQPILVRPSPDTAGEYQIVAGERAWRAAQRAGLKTVPIMVRELDDLAVLEIGIIENVQRADLNVLEEALSYKVLMEKFERTQENIAQTIGKSXSHVANXMRLLXLPDEVQSYLVSGELTAXHARAIAAAADPVALAKQIIEGGLSVRETEALARKAPNLSAGKSKGGRPPRVKDTDTQALESDLSSVLGLDVSIDHRGSTGTLTITYATLEQLDDLCNRLTRGI

Variants of: B1
Assay: one-hybrid fitness for binding NBS DNA (the Noc-binding site; scaled: cognate 1, non-cognate 0); higher = stronger binding
Details: with NBS DNA site
Method in brief: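 Bacterial one-hybrid selection in E. coli USO rpoZ- hisB- pyrF- with a HIS3 reporter carrying the site 19 bp from the promoter, screening Caulobacter ParB libraries with four specificity codons randomised (NNS). Cells grew 48 hours at 37°C on M9-minus-histidine plus 0.1 mM IPTG and 5 mM 3-AT. Plasmids before and after selection were Illumina-sequenced, three replicate libraries pooled, and variants under 10 reads dropped. Fitness is the log change in variant-to-wild-type read ratio, rescaled to cognate 1, non-cognate 0.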

Variant	one-hybrid fitness for binding NBS DNA
SYVV	≤ 0.2
ENQV	≤ 0.2
TNGR	≤ 0.2
MSNR	≤ 0.2
TAMA	≤ 0.2
QLIQ	≤ 0.2
FSQT	≤ 0.2
WMQR	≤ 0.2
GAME	≤ 0.2
WMKG	≤ 0.2
GPHL	≤ 0.2
THWT	≤ 0.2
RDQS	≤ 0.2
TRDC	≤ 0.2
RGQD	≤ 0.2
KGRD	≤ 0.2
NLQS	≤ 0.2
VCVS	≤ 0.2
RNAY	≤ 0.2
PALW	≤ 0.2
RSNK	≤ 0.2
MRKA	≤ 0.2
GTRY	≤ 0.2
GLSH	≤ 0.2

Variant	one-hybrid fitness for binding NBS DNA
APCD	≤ 0.2
VVVS	≤ 0.2
YIHS	≤ 0.2
QMWC	≤ 0.2
CQHK	≤ 0.2
TYCV	≤ 0.2
PNGP	≤ 0.2
RLSW	≤ 0.2
GMDL	≤ 0.2
NFLS	≤ 0.2
RWCG	≤ 0.2
GHTY	≤ 0.2
ISTA	≤ 0.2
QNKS	0.355
APIR	≤ 0.2
WASA	≤ 0.2
SCHT	≤ 0.2
QPGY	≤ 0.2
PLIT	≤ 0.2
KILF	≤ 0.2
SVRR	≤ 0.2
VHQY	≤ 0.2
SYNY	≤ 0.2
YHYS	≤ 0.2

Variant	one-hybrid fitness for binding NBS DNA
QCER	0.438
PIGD	≤ 0.2
GTRC	≤ 0.2
VMRC	≤ 0.2
EPFT	≤ 0.2
WAIR	≤ 0.2
QVEP	≤ 0.2
CQKV	≤ 0.2
MVYD	≤ 0.2
TGAI	≤ 0.2
CLSA	≤ 0.2
IHMV	≤ 0.2
QGNT	≤ 0.2
RRAN	0.282
YETF	≤ 0.2
IIIS	≤ 0.2
QGRC	≤ 0.2
YNAT	≤ 0.2
VQFE	≤ 0.2
AANQ	≤ 0.2
SLAV	≤ 0.2
LRDY	≤ 0.2
YVNS	≤ 0.2
WNYR	≤ 0.2

Variant	one-hybrid fitness for binding NBS DNA
NAEW	≤ 0.2
DLFL	≤ 0.2
VTNA	≤ 0.2
SYSF	≤ 0.2
PGQM	≤ 0.2
CWTC	≤ 0.2
PAQD	≤ 0.2
SFNC	≤ 0.2
QGSV	≤ 0.2
QRVR	0.839
QDVR	≤ 0.2
NASQ	≤ 0.2
GMKL	≤ 0.2
SVCC	≤ 0.2
HKTA	≤ 0.2
MMGT	≤ 0.2
HVLF	≤ 0.2
QNRP	≤ 0.2
PPHG	≤ 0.2
PGKV	≤ 0.2
TYQD	≤ 0.2
MLTR	≤ 0.2
SSDN	≤ 0.2
LAPY	≤ 0.2

Variant	one-hybrid fitness for binding NBS DNA
PVRR	≤ 0.2
FCVS	≤ 0.2
RMPL	≤ 0.2
DCSS	≤ 0.2
MPRG	≤ 0.2
VIPS	≤ 0.2
LYID	≤ 0.2
WQVT	≤ 0.2
ETRW	≤ 0.2
QATQ	≤ 0.2
MRAP	≤ 0.2
PCIV	≤ 0.2
WPSA	≤ 0.2
YHCT	≤ 0.2
RFGQ	≤ 0.2
HEHD	≤ 0.2
GCHR	≤ 0.2
WSKT	≤ 0.2
TKCV	≤ 0.2
VLCY	≤ 0.2
VELL	≤ 0.2
EQGH	≤ 0.2
PTSA	≤ 0.2
MNSN	≤ 0.2

Variant	one-hybrid fitness for binding NBS DNA
MPTA	≤ 0.2
VSAV	≤ 0.2
TGMI	≤ 0.2
TKLY	≤ 0.2
WCHC	≤ 0.2
ITKY	≤ 0.2
CFAT	≤ 0.2
ASTA	≤ 0.2
IRVS	≤ 0.2
PTRM	≤ 0.2
REWG	≤ 0.2
NLPR	≤ 0.2
CTNP	≤ 0.2
TGSE	≤ 0.2
EGET	≤ 0.2
ATMW	≤ 0.2
SECC	≤ 0.2
IKLC	≤ 0.2
WMLN	≤ 0.2
QHSV	≤ 0.2
RQEK	≤ 0.2
DAVM	≤ 0.2
CAMR	≤ 0.2
PAKE	≤ 0.2

Variant	one-hybrid fitness for binding NBS DNA
CQVR	≤ 0.2
TKNI	≤ 0.2
PHMI	≤ 0.2
ETTG	≤ 0.2
ACAK	≤ 0.2
QNWI	≤ 0.2
RVRY	0.267
MVVS	≤ 0.2
GVLT	≤ 0.2
SMGC	≤ 0.2
GIWV	≤ 0.2
HTPN	≤ 0.2
FCHL	≤ 0.2
RSMV	≤ 0.2
KIRM	≤ 0.2
NPLI	≤ 0.2
AHIF	≤ 0.2
KNAG	≤ 0.2
RFWC	≤ 0.2
TEDV	≤ 0.2
TWYS	≤ 0.2
QTKL	0.395
TAFW	≤ 0.2
YRCT	≤ 0.2

Variant	one-hybrid fitness for binding NBS DNA
TDWL	≤ 0.2
KMDR	≤ 0.2
DWIS	≤ 0.2
SFGR	≤ 0.2
NIGR	≤ 0.2
VASA	≤ 0.2
EFMR	≤ 0.2
REDM	≤ 0.2
EPLL	≤ 0.2
KQGN	≤ 0.2
ARIQ	≤ 0.2
PLMA	≤ 0.2
TRRD	≤ 0.2
TLKQ	≤ 0.2
YQLF	≤ 0.2
DPRL	≤ 0.2
VYKG	≤ 0.2
SVGE	≤ 0.2
CYYV	≤ 0.2
WEKR	≤ 0.2
PVAC	≤ 0.2
FTGG	≤ 0.2
SMQP	≤ 0.2
QVDC	≤ 0.2

Variant	one-hybrid fitness for binding NBS DNA
WSLY	≤ 0.2
WLIG	≤ 0.2
TLSC	≤ 0.2
RLGH	≤ 0.2
APVN	≤ 0.2
TLTA	≤ 0.2
AMHS	≤ 0.2
GSGG	≤ 0.2
HSVV	≤ 0.2
SRSG	≤ 0.2
DWSV	≤ 0.2
EQMG	≤ 0.2
YFAG	≤ 0.2
YVEF	≤ 0.2
HLGT	≤ 0.2
PCVS	≤ 0.2
RVSV	≤ 0.2
RMFM	≤ 0.2
RNCY	≤ 0.2
RVVV	≤ 0.2
PKSW	≤ 0.2
FLFS	≤ 0.2
QSDG	≤ 0.2
TNLT	≤ 0.2

Variant	one-hybrid fitness for binding NBS DNA
IHSG	≤ 0.2
NPRI	≤ 0.2
FDTY	≤ 0.2
RKMD	≤ 0.2
FDTR	≤ 0.2
DWSR	≤ 0.2
SNPG	≤ 0.2
RKHH	0.245
NHIR	≤ 0.2
RMKY	0.311
AEDY	≤ 0.2
HLWA	≤ 0.2
TCKV	≤ 0.2
WDAD	≤ 0.2
REAF	≤ 0.2
YDHR	≤ 0.2
DREI	≤ 0.2
TPVL	≤ 0.2
NLTS	≤ 0.2
RLYE	≤ 0.2
AVTL	≤ 0.2
TRFV	≤ 0.2
SDMP	≤ 0.2
FYDS	≤ 0.2

Variant	one-hybrid fitness for binding NBS DNA
PAYM	≤ 0.2
GEMG	≤ 0.2
TYCH	≤ 0.2
VPPS	≤ 0.2
LYTL	≤ 0.2
LRGK	≤ 0.2
QWSG	≤ 0.2
IGKR	≤ 0.2
ERRR	0.265
EGHR	≤ 0.2
ECHR	≤ 0.2
WHPC	≤ 0.2
RHHV	≤ 0.2
IQAC	≤ 0.2
TTHI	≤ 0.2
PRFY	≤ 0.2
HCLR	≤ 0.2
PHLI	≤ 0.2
PPYL	≤ 0.2
AKPK	≤ 0.2
LKWT	≤ 0.2
SNVT	≤ 0.2
ATSF	≤ 0.2
RPHD	≤ 0.2

Variant	one-hybrid fitness for binding NBS DNA
NHML	≤ 0.2
QQPG	≤ 0.2
CMGF	≤ 0.2
NAKM	≤ 0.2
IRDA	≤ 0.2
ICTR	≤ 0.2
NQLV	≤ 0.2
HMES	≤ 0.2
VMQR	≤ 0.2
TWFC	≤ 0.2
NVQI	≤ 0.2
GHAC	≤ 0.2
SEEY	≤ 0.2
CKTP	≤ 0.2
NHAD	≤ 0.2
CMGG	≤ 0.2
PPNG	≤ 0.2
GTHS	≤ 0.2
TSHK	≤ 0.2
EIFV	≤ 0.2
HAMS	≤ 0.2
GVRQ	≤ 0.2
SRHL	≤ 0.2
LHMR	≤ 0.2

Variant	one-hybrid fitness for binding NBS DNA
SSTE	≤ 0.2
MGMM	≤ 0.2
INQS	≤ 0.2
PYAV	≤ 0.2
CPSC	≤ 0.2
PLYN	≤ 0.2
PCLK	≤ 0.2
VMRL	≤ 0.2
TGNG	≤ 0.2
HSWA	≤ 0.2
MWTR	≤ 0.2
TKSI	≤ 0.2
CWQN	≤ 0.2
CRTG	≤ 0.2
WSCL	≤ 0.2
YWLR	≤ 0.2
APNR	≤ 0.2
GPSL	≤ 0.2
